Drawing on the antibiotic and cytotoxicity screens of Wong et al. (2023), this text covers cytotoxicity call and growth inhibition call for 31 compounds.

Structures are written as SMILES. This is one part of the list.

One experiment has as its system HSkMC. The experiment is described as follows: cytotoxicity call (relative viability < 0.9). The following applies: 10 µM.
The next experiment concerns HepG2. Kind of experiment: cytotoxicity call (relative viability < 0.9). The following applies: 10 µM.
The test system of a further experiment is S. aureus RN4220. The experiment is described as follows: growth inhibition call (relative growth <= 0.2). The following applies: 50 µM.

On to `CC(C)CC#Cc1ccc2c(c1)O[C@H](CN(C)CC1CCOCC1)[C@@H](C)CN([C@H](C)CO)S2(=O)=O`, for which the cytotoxicity call with HSkMC and in the experiment with HepG2 was “inactive” throughout. Besides, the growth inhibition call in the experiment on S. aureus RN4220 was “inactive”.

For `C#CCN(C)Cc1ccccc1.Cl`, the cytotoxicity call in the experiment on HSkMC and in the experiment with HepG2 was “inactive” each time. Moreover, in the experiment with S. aureus RN4220, the growth inhibition call was “inactive”.

Take `C[C@H]1CN([C@@H](C)CO)C(=O)c2cccc(NC(=O)C3CCOCC3)c2O[C@@H]1CN(C)Cc1ccc2c(c1)OCO2`: the cytotoxicity call with HSkMC and in the experiment with HepG2 was “inactive” throughout. The growth inhibition call in the experiment on S. aureus RN4220 was “inactive”.

For `CN1CCN(c2c(F)cc3c(=O)c(C(=O)O)cn4c3c2SCC4)CC1`, the cytotoxicity call with HSkMC and with HepG2 was “inactive” each time. Further, the growth inhibition call in the experiment with S. aureus RN4220 was “active”.

On to `C[C@@H]1CN([C@H](C)CO)C(=O)c2cc(NC(=O)C3CC3)ccc2O[C@H]1CN(C)Cc1ccc2c(c1)OCO2`, for which the cytotoxicity call in the experiment with HSkMC and in the experiment with HepG2 was “inactive” in each case. In addition, the growth inhibition call in the experiment on S. aureus RN4220 was “inactive”.

Take `C[C@H](CO)N1C[C@H](C)[C@@H](CN(C)C(=O)C2CC2)Oc2cc(-c3ccc(C(=O)N(C)C)cc3)ccc2S1(=O)=O`: the cytotoxicity call in the experiment on HSkMC and with HepG2 was “inactive” throughout. Moreover, in the experiment with S. aureus RN4220, the growth inhibition call was “inactive”.

With `COc1ccc(NC(=O)N(C)C[C@H]2OCCCC[C@@H](C)Oc3ccc(NS(=O)(=O)c4ccc(C)cc4)cc3C(=O)N([C@@H](C)CO)C[C@H]2C)cc1`, the cytotoxicity call in the experiment on HSkMC and in the experiment on HepG2 was “inactive” throughout. Moreover, in the experiment on S. aureus RN4220, the growth inhibition call was “inactive”.

On to `CCOC(=O)N1C(=O)[C@@]2(CCCOC2)N(c2ccc(C)cc2)C1=S.CCOC(=O)N1C(=O)[C@]2(CCCOC2)N(c2ccc(C)cc2)C1=S`, for which the cytotoxicity call in the experiment with HSkMC and with HepG2 was “inactive” throughout. The growth inhibition call with S. aureus RN4220 was “inactive”.

With `COc1ccc(NC(=O)Nc2ccc3c(c2)C(=O)N([C@@H](C)CO)C[C@H](C)[C@H](CN(C)C(=O)Nc2ccc(C(F)(F)F)cc2)O3)cc1`, the cytotoxicity call in the experiment on HSkMC and with HepG2 was “inactive” each time. Moreover, in the experiment with S. aureus RN4220, the growth inhibition call is “inactive”.

As to `C[C@H](CO)N1C[C@H](C)[C@H](CN(C)C(=O)Nc2ccc(C(F)(F)F)cc2)Oc2ccc(NC(=O)Nc3ccc4c(c3)OCO4)cc2CC1=O`, the cytotoxicity call in the experiment with HSkMC and in the experiment with HepG2 was “inactive” throughout. For the same compound, the growth inhibition call in the experiment on S. aureus RN4220 is “inactive”.

In the case of `CC(C)NC(=O)Nc1ccc2c(c1)C(=O)N([C@H](C)CO)C[C@@H](C)[C@@H](CN(C)Cc1ccc(Cl)c(Cl)c1)OCCCC[C@H](C)O2`, the cytotoxicity call in the experiment on HSkMC and with HepG2 was “inactive” in each case. Further, the growth inhibition call in the experiment on S. aureus RN4220 is “inactive”.

Turning to `COC(=O)c1ccccc1S(=O)(=O)NC(=O)Nc1nc(C)c2c(n1)CCS(=O)(=O)C2`, the cytotoxicity call with HSkMC and with HepG2 was “inactive” throughout. Besides, in the experiment on S. aureus RN4220, the growth inhibition call is “inactive”.

`COc1ccc(S(=O)(=O)N(C)C[C@@H]2Oc3c(NC(=O)NC(C)C)cccc3C(=O)N([C@@H](C)CO)C[C@H]2C)cc1`: the cytotoxicity call in the experiment on HSkMC and in the experiment with HepG2 was “inactive” throughout. Besides, the growth inhibition call with S. aureus RN4220 was “inactive”.

As for `CC(C)N1C[C@@H](CN(C)Cc2ccc(Oc3ccccc3)cc2)Oc2c(NC(=O)c3ccncc3)cccc2C1=O`, the cytotoxicity call with HSkMC is “inactive”. The cytotoxicity call with HepG2 is “active”. In addition, in the experiment on S. aureus RN4220, the growth inhibition call was “inactive”.

In the case of `C[C@@H]1CN([C@H](C)CO)C(=O)c2cc(NC(=O)Nc3cccc4ccccc34)ccc2O[C@@H](C)CCCCO[C@@H]1CN(C)Cc1ccc(C(=O)O)cc1`, the cytotoxicity call in the experiment with HSkMC and in the experiment on HepG2 was “inactive” throughout. The growth inhibition call with S. aureus RN4220 was “inactive”.

Turning to `COc1ccc(S(=O)(=O)N(C)C[C@H]2Oc3ccc(NS(=O)(=O)c4ccc(F)cc4)cc3CC(=O)N([C@H](C)CO)C[C@H]2C)cc1`, the cytotoxicity call in the experiment with HSkMC and in the experiment with HepG2 was “inactive” each time. Moreover, the growth inhibition call in the experiment with S. aureus RN4220 was “inactive”.

For `C[C@H](CO)N1C[C@H](C)[C@H](CN(C)Cc2ccc(Oc3ccccc3)cc2)Oc2ccc(NC(=O)Nc3ccc(F)cc3)cc2C1=O`, the cytotoxicity call in the experiment on HSkMC and in the experiment with HepG2 was “active” throughout. For the same compound, in the experiment on S. aureus RN4220, the growth inhibition call is “inactive”.

Turning to `Cc1ccc(S(=O)(=O)N(C)C[C@@H]2Oc3c(NS(=O)(=O)c4ccc(F)cc4)cccc3C(=O)N([C@H](C)CO)C[C@H]2C)cc1`, the cytotoxicity call in the experiment on HSkMC and in the experiment on HepG2 was “inactive” throughout. The growth inhibition call in the experiment with S. aureus RN4220 was “inactive”.

With `CC(CCC(=O)[O-])C1CCC2C3C(=O)CC4CC(=O)CCC4(C)C3CC(=O)C12C.[Na+]` (stereo not drawn), the cytotoxicity call in the experiment on HSkMC and in the experiment on HepG2 was “inactive” throughout. Further, the growth inhibition call with S. aureus RN4220 is “inactive”.

Regarding `COc1ccc(NC(=O)N(C)C[C@@H]2Oc3ccc(NC(=O)CCN4CCOCC4)cc3CC(=O)N([C@@H](C)CO)C[C@@H]2C)cc1`, the cytotoxicity call with HSkMC and in the experiment with HepG2 was “inactive” throughout. Also, the growth inhibition call with S. aureus RN4220 is “inactive”.

`COCC(=O)Nc1ccc2c(c1)OC[C@@H](C)N(Cc1cccc(F)c1)C[C@@H](C)[C@H](OC)CN(C)C2=O`: the cytotoxicity call in the experiment with HSkMC and in the experiment with HepG2 was “inactive” in each case. For the same compound, the growth inhibition call in the experiment with S. aureus RN4220 is “inactive”.

Consider `CC(C)NC(=O)N1Cc2cc(C(=O)NCC(F)(F)F)nc(-c3cccc(-c4cc5ccccc5o4)c3)c2[C@H]1CCO`, for which the cytotoxicity call in the experiment with HSkMC and in the experiment with HepG2 was “inactive” throughout. Further, the growth inhibition call in the experiment with S. aureus RN4220 is “inactive”.

Take `C[C@H]1CN([C@@H](C)CO)C(=O)Cc2cc(NC(=O)Nc3cccc4ccccc34)ccc2O[C@@H]1CN(C)C(=O)Nc1ccc(F)cc1`: the cytotoxicity call with HSkMC and in the experiment on HepG2 was “inactive” throughout. In addition, the growth inhibition call in the experiment on S. aureus RN4220 is “inactive”.

For `O=C(C[C@@H]1CC[C@H]2[C@@H](COC[C@@H](O)CN2C(=O)c2cccnc2)O1)NCc1ccc(-c2ccccc2)cc1`, the cytotoxicity call in the experiment with HSkMC and in the experiment on HepG2 was “inactive” each time. Also, in the experiment with S. aureus RN4220, the growth inhibition call is “inactive”.

For `COc1ccc(S(=O)(=O)Nc2cccc3c2O[C@@H](CN(C)S(=O)(=O)c2cccs2)[C@@H](C)CN([C@@H](C)CO)C3=O)cc1`, the cytotoxicity call in the experiment with HSkMC and in the experiment with HepG2 was “inactive” throughout. Moreover, the growth inhibition call with S. aureus RN4220 was “inactive”.

On to `C[C@H](CO)N1C[C@H](C)[C@@H](CN(C)C(=O)Nc2cccc3ccccc23)Oc2ccc(NC(=O)Cc3cn(C)c4ccccc34)cc2C1=O`, for which the cytotoxicity call in the experiment with HSkMC and in the experiment with HepG2 was “inactive” throughout. For the same compound, in the experiment with S. aureus RN4220, the growth inhibition call is “inactive”.

In the case of `C[C@@H]1CCCCO[C@@H](CN(C)CC2CCCCC2)[C@@H](C)CN([C@@H](C)CO)C(=O)c2cc(NC(=O)Nc3ccc(F)cc3)ccc2O1`, the cytotoxicity call in the experiment with HSkMC and with HepG2 was “inactive” each time. Besides, the growth inhibition call in the experiment with S. aureus RN4220 was “inactive”.

Take `COc1ccc2c3c([nH]c2c1)[C@@H](CO)N(CC1CCCC1)C[C@]13CCN(CC1)C(=O)Nc1cccc(c1)F`: the cytotoxicity call in the experiment on HSkMC and in the experiment on HepG2 was “inactive” each time. Also, the growth inhibition call in the experiment on S. aureus RN4220 is “inactive”.

As for `C=CCC[C@@H](Cc1ccc(F)cc1)C(=O)OC[C@@H](Cc1ccccc1)NC(=O)[C@H](CC=C)CC(=O)N(CCO)Cc1ccccc1`, the cytotoxicity call in the experiment on HSkMC (human skeletal muscle cells) and in the experiment on HepG2 was “inactive” each time. In addition, the growth inhibition call in the experiment on S. aureus RN4220 was “inactive”.

As for `CCCC#Cc1ccc2c(c1)O[C@@H](CN(C)S(=O)(=O)c1cccc(F)c1)[C@H](C)CN([C@@H](C)CO)S2(=O)=O`, the cytotoxicity call with HSkMC and in the experiment with HepG2 was “inactive” in each case. In addition, in the experiment on S. aureus RN4220, the growth inhibition call is “inactive”.

Consider `O=C1O[C@H](c2ccccc2)[C@H](c2ccccc2)N2[C@H]1[C@@H](C(=O)Nc1nc3ccccc3s1)[C@]1(C(=O)Nc3ccccc31)[C@H]2c1ccc(O)cc1`, for which the cytotoxicity call in the experiment with HSkMC and with HepG2 was “inactive” throughout. In addition, in the experiment on S. aureus RN4220, the growth inhibition call is “inactive”.
